The other results are listed elsewhere or left out. No stated cut-off is given here; in the data, active = 3.2 or more and inactive = the rest. Only a few entries rise above the background.
molecular target: SHP2 C-SH2 domain E139D; experiment: enrichment score (SH2-bound / input frequency) (ratio); bacterial display of known human phosphotyrosine sites (pTyr-Var adds point mutants) read by sequencing; higher = stronger binding; tyrosines were phosphorylated by kinases first; conditions: peptide library: pTyr-Var
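Further: displayed peptides selected on beads carrying the immobilized SH2 domain, with library peptides lacking any tyrosine serving as negative controls.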

Row | Binder | enrichment score
1 | GESQGYDIMEP [MSH2_Y863] | inactive: 0.627
2 | VDTRAYFTSAT [MT-CO1_Y304] | inactive: 0.972
3 | KIITDYYVDMK [MPP4_Y566_V562I] | inactive: 1.21
4 | ISIFHCAKGQP [MPZ_Y82_Y82C] | inactive: 0.79
5 | PLFKICVAELI [MRPL28_Y230_Y230C] | inactive: 0.754
6 | KTGNIYRTEYG [MRPL3_Y265_M261T] | inactive: 1.22
7 | SLNEEYAKNKT [MSH2_Y563_T564A] | inactive: 0.586
8 | STTSDYQWDVS [MTDH_Y364] | inactive: 0.68
9 | SLNEEYTKNKT [MSH2_Y563] | inactive: 0.593

molecular target: SHP2 C-SH2 domain wild-type; experiment: as above; conditions: peptide library: pTyr-Var

Row | Binder | enrichment score
10 | GESQGYDIMEP [MSH2_Y863] | inactive: 0.573
11 | VDTRAYFTSAT [MT-CO1_Y304] | inactive: 0.839
12 | KIITDYYVDMK [MPP4_Y566_V562I] | inactive: 1.26
13 | ISIFHCAKGQP [MPZ_Y82_Y82C] | inactive: 0.777
14 | PLFKICVAELI [MRPL28_Y230_Y230C] | inactive: 0.973
15 | KTGNIYRTEYG [MRPL3_Y265_M261T] | inactive: 0.94
16 | SLNEEYAKNKT [MSH2_Y563_T564A] | inactive: 0.625
17 | STTSDYQWDVS [MTDH_Y364] | inactive: 0.59
18 | SLNEEYTKNKT [MSH2_Y563] | inactive: 0.63

molecular target: SHP2 N-SH2 domain L43F; experiment: as above; conditions: peptide library: pTyr-Var

Row | Binder | enrichment score
19 | GESQGYDIMEP [MSH2_Y863] | inactive: 0.652
20 | VDTRAYFTSAT [MT-CO1_Y304] | inactive: 0.728
21 | KIITDYYVDMK [MPP4_Y566_V562I] | inactive: 1.19
22 | ISIFHCAKGQP [MPZ_Y82_Y82C] | inactive: 0.885
23 | PLFKICVAELI [MRPL28_Y230_Y230C] | inactive: 0.562
24 | KTGNIYRTEYG [MRPL3_Y265_M261T] | inactive: 0.683
25 | SLNEEYAKNKT [MSH2_Y563_T564A] | inactive: 0.758
26 | STTSDYQWDVS [MTDH_Y364] | inactive: 0.668
27 | SLNEEYTKNKT [MSH2_Y563] | inactive: 0.437

molecular target: SHP2 N-SH2 domain T42A; experiment: as above; conditions: peptide library: pTyr-Var

Row | Binder | enrichment score
28 | GESQGYDIMEP [MSH2_Y863] | inactive: 0.517
29 | VDTRAYFTSAT [MT-CO1_Y304] | inactive: 0.86
30 | KIITDYYVDMK [MPP4_Y566_V562I] | inactive: 1.08
31 | ISIFHCAKGQP [MPZ_Y82_Y82C] | inactive: 0.924
32 | PLFKICVAELI [MRPL28_Y230_Y230C] | inactive: 0.409
33 | KTGNIYRTEYG [MRPL3_Y265_M261T] | inactive: 0.658
34 | SLNEEYAKNKT [MSH2_Y563_T564A] | inactive: 0.591
35 | STTSDYQWDVS [MTDH_Y364] | inactive: 0.692
36 | SLNEEYTKNKT [MSH2_Y563] | inactive: 0.461

molecular target: SHP2 N-SH2 domain T52S; experiment: as above; conditions: peptide library: pTyr-Var

Row | Binder | enrichment score
37 | GESQGYDIMEP [MSH2_Y863] | inactive: 0.47
38 | VDTRAYFTSAT [MT-CO1_Y304] | inactive: 0.751
39 | KIITDYYVDMK [MPP4_Y566_V562I] | inactive: 1.16
40 | ISIFHCAKGQP [MPZ_Y82_Y82C] | inactive: 0.903
41 | PLFKICVAELI [MRPL28_Y230_Y230C] | inactive: 0.725
42 | KTGNIYRTEYG [MRPL3_Y265_M261T] | inactive: 0.728
43 | SLNEEYAKNKT [MSH2_Y563_T564A] | inactive: 0.606
44 | STTSDYQWDVS [MTDH_Y364] | inactive: 0.719
45 | SLNEEYTKNKT [MSH2_Y563] | inactive: 0.758

molecular target: SHP2 N-SH2 domain wild-type; experiment: as above; conditions: peptide library: pTyr-Var

Row | Binder | enrichment score
46 | GESQGYDIMEP [MSH2_Y863] | inactive: 0.71
47 | VDTRAYFTSAT [MT-CO1_Y304] | inactive: 0.776
48 | KIITDYYVDMK [MPP4_Y566_V562I] | inactive: 1.01
49 | ISIFHCAKGQP [MPZ_Y82_Y82C] | inactive: 1
50 | PLFKICVAELI [MRPL28_Y230_Y230C] | inactive: 0.996
51 | KTGNIYRTEYG [MRPL3_Y265_M261T] | inactive: 0.717
52 | SLNEEYAKNKT [MSH2_Y563_T564A] | inactive: 0.508
53 | STTSDYQWDVS [MTDH_Y364] | inactive: 0.679
54 | SLNEEYTKNKT [MSH2_Y563] | inactive: 0.431

Reference: the supplement of paper PMC10369915
